Experimental data from the supplement of paper PMC11417369.
The other results are listed elsewhere or left out.

tested on: PfAP2-HC AP2 domain (GST-tagged); assay: gcPBM binding intensity (ln(normalized median fluorescence intensity)); higher = stronger DNA binding
Outline: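 The binding buffer was 1× PBS containing 1% milk, 0.2 mg/ml BSA, 0.5% salmon testes DNA and 0.03% Triton X-100. In it, GST-tagged P. falciparum DNA-binding domains expressed in E. coli were applied for 1 h to an Agilent 4 × 180k array of primer-extended double-stranded 36-bp intergenic genomic probes plus negative controls. Binding intensity, read with Alexa488 anti-GST antibody and a 488 nm scan, is the highest Masliner-normalised natural-log median intensity across replicate spots of either probe orientation.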

| Sequence | gcPBM binding intensity (ln) |
| --- | --- |
| TGAAATGATATATAAACACACATATATATATATATA [CACACA_site3511] | 9.6 |
| ATTTTTAATGTGATCACACATAAATATTATATATAT [CACACA_site5641] | 9.64 |
| ATTATATTCCAAGTTTGTACATATATATAAAAGTAT [XGTACX_site1631] | 9.66 |
| GTAAAAGTTAAAAAAACATGCAAAATTTAAAAAAAA [TGCATGCA_site637] | 9.65 |
| ATACATATATATATTCTACACACTTATAATATAATA [CACACA_site8782] | 9.75 |
| ACTATATTTGCCCTTTTAATCAGAACAAAAAAAAAA [CACACA_negctrl_site1051] | 9.3 |
| AAATAAGCATATACAAACATGCATACATATAAATAA [CACACA_negctrl_site246] | 9.79 |
| AAAAAAAAAAAATCATGTACTTATTTTTCATTGTTG [XGTACX_site1542] | 9.6 |
| TATATGCACTTAATATGTACACAAAAAAAAAAAAAA [XGTACX_site6199] | 9.48 |
| TTTATATATTATACATGTACATATTTATTTATATAA [XGTACX_site3474] | 9.75 |
| CTTATATTAAAAACTTGTACACATGTTAAGAATTTT [XGTACX_site5857] | 9.51 |
| AGTATAAAAATAAGCACACACACAAATATATATTTA [CACACA_site923] | 10.5 |
| ATAATATAAATATTAACACACATCCTTTTATGTATA [CACACA_site6685] | 9.88 |
| TTTTCTTTTACAAAGGGTACATAATTTAAATTCATA [XGTACX_site3876] | 9.36 |
| TTTCTTCTGCATTATGCACACTATAATTCGTTAAAA [CACACA_site5568] | 9.87 |
| TTACAAAACACTTATACACACATATAAATATAAATA [CACACA_site7307] | 9.92 |
| CTCCTCATATAATTTTGTACATAAAAAATTACCATT [XGTACX_site3879] | 9.56 |
| ATATATTTTATATGTGTGCACTATATATATATATAT | 10 |
| TATTTTATAATTTACCGTACATTAATTGTATTATTA [XGTACX_site5722] | 9.7 |

| Sequence | gcPBM binding intensity (ln) |
| --- | --- |
| ATATATTTTAAAGAAAGTACCCACCGTTTGAAGTCA [XGTACX_site2273] | 9.73 |
| TGTTATATATATTGACTTAATAAATAAATAAATATA [GTGCAC_negctrl_site590] | 9.42 |
| TCTTATTTTATAAATATAAATATATATATATATATA [GTGCAC_negctrl_site479] | 9.44 |
| CTATAAATAACAGAAAGTACATATACATGGATATAT [XGTACX_site3317] | 9.69 |
| TTTCTAAATGTTTATATATATATATATATATAAATA [GTGCAC_negctrl_site397] | 9.47 |
| TATTTTGCTCATCCATGTACACATAGATATATTTTA [XGTACX_site8244] | 9.75 |
| ATATTATGTGAAGAACGTACAAATTTTTACACTATA [XGTACX_site1485] | 9.74 |
| TTCTTTTCAGAAGGAAAGAATTATAACATATCATAA [XGTACX_negctrl_site548] | 9.08 |
| AATCCACTTTTTTATGTTATACAATATAAATTAAAT [XGTACX_negctrl_site446] | 9.57 |
| ATTTAAGAAAAAAGTTGTACTTATTTATTTTTATTT [XGTACX_site5561] | 9.54 |
| GGCTAAAAGGGGCACACACACAAAAAAAAAAAAAAA [CACACA_site3288] | 10.3 |
| ATATATTATTTCTAGTGTACATACCCATATATAATA [XGTACX_site8902] | 9.63 |
| TAGATAAACAAGAAATGTACAAACGTAAATATGTTC [XGTACX_site2373] | 9.83 |
| TAAAAAATAAATATATGTACATATTTATTTTTTTTT [XGTACX_site850] | 9.46 |
| ATATTTTTTTTTTCGTGTACGCATAAATATATCTAA [XGTACX_site3360] | 9.61 |
| ATTGAATTCCAACTGGTGCACCAGTAAGATTGAAAA [GTGCAC_site9895] | 9.61 |
| AAATTCATAAAAATATTTTATAATTATATATAGAAT [TGCATGCA_negctrl_site343] | 9.5 |
| GGGTTTTTTATTAATACATGCATGGAAACGCACTAT [TGCATGCA_site1000] | 9.69 |
| ATATATATATAATTTGTACACACAAATATGCATATA [CACACA_site9136] | 9.83 |

| Sequence | gcPBM binding intensity (ln) |
| --- | --- |
| AAGAAAAACAATGAGATAAAGAAGAGAAAATATGTC [TGCATGCA_negctrl_site415] | 10.1 |
| ATAAATATGTAAAAAACATGCAAAAAATTAAAGACA [TGCATGCA_site912] | 10.2 |
| TCATAGTAGAAACACACACACACACCCATATATATA [CACACA_site1737] | 11.3 |
| GGAAACAAAAAATATATACACACTAAACATAAAAAA [CACACA_site20] | 10.1 |
| AACGCACATATATTTATGTATATATATATATATATA [GTGCAC_negctrl_site478] | 9.74 |
| GTTATTAAACAGAAAAGTACATATGTATATTAAAAT [XGTACX_site3724] | 9.86 |
| TTATTAAATAAAATCATGCACACAATATATATTTTA [CACACA_site2496] | 9.7 |
| TTATTACATAACAATATACACACTATTGATTAAAGA [CACACA_site2933] | 9.57 |
| TAAAAAAAAAGAAGCTGTACTAAAAAATTTATATTA [XGTACX_site7408] | 9.38 |
| AATACTAAAAAGTGTACACATACATAAAAAATTGCA [CACACA_site5620] | 9.92 |
| AAGAAAAAAGTTATTAGTACACATTATAATAAAAAG [XGTACX_site3527] | 9.74 |
| TATTGATTTATAAACACACACTCGAAGATGTTTAAC [CACACA_site4760] | 9.71 |
| TATATCTCATAGTATACACACACACCCACCCACATA [CACACA_site8513] | 10.3 |
| TATATATATGTAAATCGTACAAATTATATATATCAT [XGTACX_site2821] | 9.6 |
| TAATTTTCTTTTTATCGTTTTTTTTTTTTTTTTTTT [XGTACX_negctrl_site432] | 9.4 |
| CATTATGTTGTAAATACACACATACATATACATACA [CACACA_site8143] | 9.87 |
| AGTGGAATGTATGATTTTCATTCCTTAAAATTTTAA [GTGCAC_negctrl_site521] | 9.49 |
| CATATATAACAATTCTCACACATAAAAAAAAAAAAT [CACACA_site4564] | 9.76 |
